Patent US6534546B1 (Chugai Seiyaku Kabushiki Kaisha, priority 1994, dated 2003)

How the values were obtained:
N-cNOS (Type 1) [1] = target: T1, N-cNOS (Type 1) (Rattus norvegicus, UniProt P29476); assay: biochemical
N-cNOS (Type 1) [2] = target: T1, N-cNOS (Type 1); conditions: for Ratio of IC50 values E-cNOS/N-cNOS / Ratio of IC50 values iNOS/N-cNOS: index of selectivity
[3] = conclusion from Tables 49, 50 and 51

SMILES	IC50 (N-cNOS (Type 1) [1])	selectivity for N-cNOS compared to E-cNOS, compared with the existing NOS inhibitors (L-EIN) (N-cNOS (Type 1) [2]; [3])	Ratio of IC50 values E-cNOS/N-cNOS (N-cNOS (Type 1) [2])	Ratio of IC50 values iNOS/N-cNOS (N-cNOS (Type 1) [2])	N-cNOS inhibitory potency compared with the existing NOS inhibitors (L-MIN) (N-cNOS (Type 1) [2]; [3])
CCSC(=N)Nc1ccc(NC)c(CN)c1.Cl.Cl.Cl [Example 452, N-(5-(S-ethylisothioureido)-2-methylaminophenylmethyl)amine trihydrochloride]	6.4 nM	more selective inhibitory effect on N-cNOS than L-EIN	567.5	1088.0	–
CSC(=N)Nc1ccc(CCN)cc1.Cl.Cl [Example 52, N-(4-(S-methylisothioureido)phenylethyl)amine dihydrochloride]	35.2 nM	–	13.7	78.4	–
CSC(=N)Nc1cccc(CCN)c1.Cl.Cl [Example 60, N-(3-(S-methylisothioureido)phenylethyl)amine dihydrochloride]	171 nM	–	–	39.5	–
CCNc1ccc(NC(=N)SCC)cc1CN(C(=O)OC(C)(C)C)C(=O)OC(C)(C)C [Example 458, N-(2-ethylamino-5-(S-ethylisothioureido)phenylmethyl)iminodicarboxylic acid di-t-butyl ester]	8.4 nM	more selective inhibitory effect on N-cNOS than L-EIN	488.2	–	–
CCSC(=N)Nc1ccc(OC)c(C(C)(C)N)c1 [Example 350, N-(1-(5-(S-ethylisothioureido)-2-methoxyphenyl)-1-methylethyl)amine]	106 nM	more selective inhibitory effect on N-cNOS than L-EIN	149.9	552.5	–
CCSC(=N)Nc1ccc(N(C)C)c(CN)c1.Cl.Cl.Cl [Example 270, N-(2-dimethylamino-5-(S-ethylisothioureido)phenylmethyl)amine trihydrochloride]	4.3 nM	more selective inhibitory effect on N-cNOS than L-EIN	834.0	1053.2	more potent in inhibiting N-cNOS than L-MIN
CCN=C(N)Nc1cccc(CNC)c1.Cl.Cl [Example 376, N-(3-(N′-ethylguanidino)phenylmethyl)methylamine dihydrochloride]	21.3 nM	–	15.9	–	–
CSC(=N)Nc1cccc(C(C)N)c1.Cl.Cl (stereo not drawn) [Example 12, N-(1-(3-(S-methylisothioureido)phenyl)ethyl)amine dihydrochloride]	14.2 nM	–	37.9	16.9	–
CCN=C(N)Nc1ccc(N(C)CC)c(CN)c1.Cl.Cl.Cl [Example 285, N-(5-(N′-ethylguanidino)-2-(N-ethyl-N-methyl-amino)phenylmethyl)amine trihydrochloride]	199 nM	–	36.7	–	–
CN(C)c1ccc(NC(N)=N[N+](=O)[O-])cc1CN.Cl.Cl [Example 281, N-(2-dimethylamino-5-(N′-nitroguanidino)phenylmethyl)amine dihydrochloride]	108 nM	–	15.0	–	–
CCN=C(N)Nc1cccc(C(C)(C)N)c1.Cl.Cl [Example 300, N-(1-(3-(N′-ethylguanidino)phenyl)-1-methylethyl) amine dihydrochloride]	69.8 nM	–	7.0	–	–
CCSC(=N)Nc1cccc(C2(N)CCC2)c1.Cl.Cl [Example 162, N-(1-(3-(S-ethylisothioureido)phenyl)cyclobutyl)amine dihydrochloride]	7.9 nM	–	72.9	–	–
CCSC(=N)Nc1cccc(CNC)c1C.Cl.Cl [Example 411, N-(3-(S-ethylisothioureido)-2-methylphenylmethyl)methylamine dihydrochloride]	5.9 nM	–	57.8	–	–
CCN=C(N)Nc1cccc(CCN)c1.Cl.Cl [Example 543, N-(3-(N′-ethylguanidino)phenylethyl)amine dihydrochloride]	95 nM	–	32.8	–	–
CCC(N)c1cccc(NC(N)=N[N+](=O)[O-])c1.Cl (stereo not drawn) [Example 21, N-(1-(3-(N′-nitroguanidino)phenyl)propyl)amine hydrochloride]	5.9 nM	–	–	441.7	–
CCC(N)c1cccc(NC(=N)SC)c1.Cl.Cl (stereo not drawn) [Example 19, N-(1-(3-(S-methylisothioureido)phenyl)propyl)amine dihydrochloride]	88.4 nM	–	–	27.2	–
